# Experimental data taken from PubChem BioAssay (NCATS).
# Several values for one entry are separate records, joined by “and”; a condition that tells them apart may be missing. Identical values can stand only once. The shares of active, inactive and inconclusive entries below differ from those in the screen. Where the call is inconclusive, the potency comes from a doubtful curve fit. Activity calls are given as the source filed them. Calls follow the shape of the dose curve; as a rule, active = well fitted inhibition curve with a large enough effect; inconclusive = small, poorly fitted or top-dose-only effect; inactive = flat fitted curve, though single readings scatter.
# Tested on: MCC-26
# Assay: qHTS assay to identify novel small-molecules to repurpose for Merkel cell carcinoma treatment (AID 1296009); also: nearly all actives have a fitted effect of over 60% in size
# Conditions: MCC and control cell lines, CellTiter-Glo viability, 72 h; series mostly up to 46 µM
# Summary of the method: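 Viability readout: ATP luminescence (CellTiter-Glo) after 72 hr drug exposure at 37 degree celsius. Dose-response format was 8 points for NPC and 11 points for MIPE; data normalized to in-plate controls.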
# Potency is read from the fitted curve at half-maximal effect; tags tell the direction and shape of the fitted curve.
row,SMILES,Potency
1,CC(C)Oc1ccc(C(=O)N[C@H](CNC(=O)CN(C)C)Cc2ccc(-c3cn4cccc([C@H](C)O)c4n3)cc2)cc1Cl,inactive
2,CCC(=O)N1CCN(c2ccc(-n3c(=O)ccc4cnc5ccc(-c6cnc7ccccc7c6)cc5c43)cc2C(F)(F)F)CC1,"inconclusive: 0.296 µM [inhibitor, full curve]"
3,C=CC(=O)N1CCc2ccc(-n3c(=O)ccc4cnc5ccc(-c6cnn(C)c6)cc5c43)cc21,"inconclusive: 7.43 µM [inhibitor, full curve]"
4,CC(=O)O[C@H]1C(=O)[C@@]2(C)C([C@H](OC(=O)c3ccccc3)[C@]3(O)C[C@H](OC(=O)[C@H](O)[C@@H](NC(=O)c4ccccc4)c4ccccc4)C(C)=C1C3(C)C)[C@]1(OC(C)=O)CO[C@@H]1C[C@@H]2O (some centres undefined),active: 0.0037 µM
5,COc1cc2c(cc1-c1c(C)noc1C)ncc1[nH]c(=O)n([C@H](C)c3ccccn3)c12,active: 23.5 µM
6,CN(C)CCCN1c2ccccc2CCc2ccc(Cl)cc21,"inconclusive: 11.8 µM [inhibitor, partial curve, poor fit]"
7,Cc1ccc2c(c1)c1c(n2CCc2ccc(C)nc2)CCN(C)C1,inactive
8,CCc1c2c(nc3ccc(OC(=O)N4CCC(N5CCCCC5)CC4)cc13)-c1cc3c(c(=O)n1C2)COC(=O)[C@]3(O)CC,"active: 16.8 µM and inconclusive: 5.26 µM [inhibitor, partial curve, poor fit]"
9,CCc1cc(-c2n[nH]c(C)c2-c2ccc3c(c2)OCCO3)c(O)cc1O,"inconclusive: 8.33 µM [inhibitor, full curve]"
